Broadly, the % Inhibition is the relative decrease from the control value, in per cent.

Among all 150,000 compounds or so, about 540 (0.36%) showed an effect of 50% or more. The list shows a part of the results.

In this assay the test system is Plasmodium falciparum. The assay can be described thus: Primary screen in NF54 nanoGlo assay, in single point, at 2uM, 72h; a lower Z score goes with more inhibition. It is filed as functional, Erythrocyte. As to conditions: timepoint 72 hour.
For `CCn1cc(S(=O)(=O)N[C@@](C)(CC)c2nc(C)cs2)cn1`, the “% Inhibition” value is given as -13% and the Z score was 2.64.
For `c1ccc([C@@H]2CN(c3ncnc4ccccc34)CCO2)cc1` the same measures were -13% and 1.66.
For `COc1ccc(CN2CCNC(=O)[C@@H]2CC(=O)NCCc2ccc(Cl)cc2)cc1OC` the same measures were -16% and 2.26.
For `O=C(Cn1cncn1)NCCCc1ccc(Br)cc1F` the same measures were -4% and 0.62.
Consider `Cc1cc(C)cc(C(=O)N2CCC([C@]3(CCC(C)C)NC(=O)N(CCN(C)C)C3=O)CC2)c1`, for which the “% Inhibition” value was -16% and the Z score is listed as 2.06.
For `Cn1nc(C(=O)N2CCOCC2)cc1C(=O)Nc1ccc(F)c(F)c1` the same measures were -14% and 1.59.
For `Cc1noc(COC(=O)C2(c3cccc(Cl)c3)CCCCC2)n1`, the “% Inhibition” value is -12% and the Z score stood at 1.36.
Consider `Cc1nn(-c2ccccc2)c2nc(C3CCOCC3)nc(N3CCN(C(=O)Cc4cccs4)CC3)c12`, for which the “% Inhibition” value was 3% and the Z score is -0.45.
Take `COc1ccc(C)cc1NC(=O)C(=O)NCC(=O)N1CCO[C@H](c2ccccc2)C1`: the “% Inhibition” value is on record as -10% and the Z score is recorded as 1.46.
On to `CCCN(CCO)C(=O)Nc1ccccc1N(C)C`, for which the “% Inhibition” value worked out at 10% and the Z score was -1.46.
In the case of `COc1ccc(C(=O)N2CCC3(CC2)[C@H](O)C[C@@H]3OC)cc1C`, the “% Inhibition” value was 2% and the Z score is on record as -0.26.
Turning to `CN(CCC(=O)Nc1ccccc1C#N)Cc1nccn1C(F)F`, the “% Inhibition” value is -5% and the Z score is listed as 0.79.
For `O=C(C1CC(=O)N(c2ccc(F)cc2)C1)N1CCCCC(c2ccc(F)cc2)C1` (configuration not stated) the same measures were -15% and 2.37.
For `O=C(COc1cccc2cccnc12)NC(C1CC1)C1CC1` the same measures were 34% and -3.82.
For `COCCN(CC(C)C)C(=O)Cc1ccn(C(C)C)n1` the same measures were -8% and 0.76.
For `CC(C)CCN(CCC#N)Cc1cc(=O)n2nccc2[nH]1`, the “% Inhibition” value is given as -4% and the Z score was 0.62.
As for `Cn1nccc1CCNC(=O)Nc1cccnn1`, the “% Inhibition” value is -5% and the Z score is given as 0.74.
For `c1ccc(Nc2cnc3ccccc3c2)nc1` the same measures were -9% and 1.27.
For `O=C1NCC[C@@H]1Nc1ccc(Oc2ncc(Cl)cn2)c(Cl)c1` the same measures were 5% and -0.6.
Consider `O=C(Nc1ccncc1F)c1ccoc1`, for which the “% Inhibition” value is recorded as -2% and the Z score amounted to 0.15.
For `CCc1nnc(N2CCC(c3nc(C)no3)CC2)n1C[C@H]1CCCCO1` the same measures were -9% and 1.05.
For `CCOc1ncccc1C(=O)Nc1cccc(S(=O)(=O)N2CCCCC2)c1` the same measures were -15% and 2.28.
In the case of `COc1ncccc1COc1nnc(-c2ccccc2)o1`, the “% Inhibition” value was -3% and the Z score is recorded as 0.63.
As to `O=C1CN(Cc2ccn(C3CCCC3)n2)C2CCCCC2N1` (configuration not stated), the “% Inhibition” value is -7% and the Z score amounted to 0.83.
For the molecule `COc1ncnc2c1CN(C(=O)c1cc3c(s1)CC[C@H](C)C3)CC2`, the “% Inhibition” value is reported as 38% and the Z score is given as -4.93.
On to `O=C(Nc1nc2ccccc2n1C1CCCC1)c1ccon1`, for which the “% Inhibition” value is on record as -12% and the Z score came out at 1.47.
For `O=S(=O)(c1ccc(-c2ccn[nH]2)s1)N1CCc2ccccc2C1` the same measures were 4% and -0.74.
For `C#CCNC(=O)c1ccc(NCCn2c(C)nc3ccccc32)nc1` the same measures were 1% and -0.1.
For `Cc1oc2ncn(C)c(=O)c2c1C(=O)N1CCCCC1` the same measures were 1% and -0.09.
Consider `O=C(CN1CCOC1=O)N1CC[C@H](Oc2cc(C(F)(F)F)ccn2)C1`, for which the “% Inhibition” value was -7% and the Z score was found to be 1.4.
For `CC(C#N)CNC1CCC2(CC1)CC2NC(=O)OC(C)(C)C` (configuration not stated) the same measures were 14% and -1.9.
For `CCCCS(=O)(=O)N1CCCCC1` the same measures were -6% and 0.61.
For `Cn1ncc(Oc2ccc3c(c2)OCO3)c(Nc2cccc(C(=O)NC3CC3)c2)c1=O` the same measures were -20% and 1.76.
With `CC1(C(=O)NCc2nc3cc(C(C)(C)C)ccc3o2)COC1`, the “% Inhibition” value was 8% and the Z score was -1.01.
In the case of `CCc1csc(CNC(=O)c2ccc(OCC(=O)N3CCCCC3)cc2)n1`, the “% Inhibition” value is reported as -22% and the Z score turned out to be 2.21.
For `CN(C)[C@@H]1C[C@@H](CO)N(Cc2cnc3c(-c4ccccc4)cnn3c2)C1` the same measures were 4% and -0.81.
For `COc1ccc(N2C(=O)[C@H]3[C@@H](C2=O)[C@]2(C(=O)Nc4c2ccc(C)c4C)N2CCC[C@@H]32)cc1` the same measures were 1% and -0.18.
For `Cc1cccc(-n2nc(C)c3sc(N(C)CC(=O)N4CCOCC4)nc32)c1` the same measures were -7% and 0.94.
Regarding `O=C(CN1CCN(C(=O)Nc2ccc(F)cc2)CC1=O)N1CCC(Cc2ccccc2)CC1`, the “% Inhibition” value is reported as -6% and the Z score was 1.11.
As for `Cc1nnc(NC(=O)c2ccc(N3CCCS3(=O)=O)cc2C)s1`, the “% Inhibition” value is -8% and the Z score turned out to be 0.76.
For `O=C(CCCc1ccccn1)Nc1cc(C2CC2)nn1[C@H]1CCS(=O)(=O)C1` the same measures were -1% and 0.14.
For `COCCC[C@H]1CCCN(Cc2cc3cc(F)ccc3n2C)C1` the same measures were -9% and 1.62.
For `O=C(N1CCc2nccnc2C1)C1(C2CC2)CCC1` the same measures were -2% and 0.26.
With `C[C@H](NC(=O)c1ccc(F)c(Br)c1)C(=O)N(C)C`, the “% Inhibition” value is -4% and the Z score is recorded as 0.75.
For `CC1CCN(c2cc(-n3cnc(C(=O)NC4CCCC4)c3)ncn2)CC1` the same measures were -16% and 1.74.
For `CC(=O)N1CCN(C(=O)Cn2c(=O)n(-c3ccc(C)c(Cl)c3)c(=O)c3ccccc32)CC1` the same measures were -6% and 0.6.
For `COc1cc(F)c(NC(=O)c2cc(-c3ccccc3)ccc2Cl)cc1OC` the same measures were -4% and 0.39.
Turning to `CCCCN(CCO)C(=O)Nc1cnn(CC)c1`, the “% Inhibition” value is -8% and the Z score amounted to 0.74.
For `O=C1CCC(NC(=O)c2ccc(NCC3CC3)nc2)C(C2CC2)N1` (configuration not stated) the same measures were -4% and 0.65.
For `COc1ccc(C(=O)NC(C)(C)c2c(C)noc2C)cn1` the same measures were -5% and 0.59.
Turning to `COc1ccccc1CC(=O)NC[C@H](O)c1ccc2ccccc2c1`, the “% Inhibition” value worked out at 1% and the Z score is -0.2.
For `CN(C)CCNC(=O)Nc1ccn(-c2ncccc2Cl)n1` the same measures were 30% and -0.62.
For `C=CCCC(=O)NCc1cn(-c2ccncc2)nn1` the same measures were 9% and -1.2.
For `CN(C)C(=O)CNc1cccc(Cl)c1` the same measures were -6% and 0.85.
`Cc1nc([C@H](C)n2ccnc2-c2c[nH]cn2)cs1`: the “% Inhibition” value was -1% and the Z score is 0.11.
With `CCCc1ncncc1C(=O)N1CCC[C@H](c2nccn2CC)C1`, the “% Inhibition” value was -17% and the Z score is reported as 3.11.
For `O=C(CC1CCCC1)Nc1ncccc1O` the same measures were -5% and 0.78.
For `Cc1nnsc1C(=O)N1C2C=CCC1CC2` (configuration not stated), the “% Inhibition” value is recorded as -10% and the Z score is 1.68.
For `CC(C)(NC(=O)NCc1cccnc1)c1ccc2c(c1)OCO2` the same measures were -9% and 1.19.
For `CC[C@](C)(NC(=O)C(=O)Nc1cc(C)c(F)cc1C)c1nccs1` the same measures were 22% and -3.13.
For `Cc1ccc(O[C@H]2CCc3ccccc32)nn1`, the “% Inhibition” value is reported as -2% and the Z score turned out to be 0.22.
Turning to `COc1cc2ccc3c(CCN(C)C(=O)[C@H]4CCOC(C)(C)C4)cc(OC)c(OC)c3c2cc1OC`, the “% Inhibition” value amounted to 12% and the Z score is -1.94.
For `CCOCCCN(CC(=O)N(Cc1ccc(F)cc1)Cc1ccc(C)o1)C(=O)Nc1ccccc1C(F)(F)F` the same measures were -7% and 1.01.
For `CCc1nn(-c2ccccc2)c(Oc2ccccc2OC)c1CN(CCOC)C(=O)c1ccccc1` the same measures were -17% and 1.61.
For `C=CCC(CN1CCOCC1c1noc(C)n1)c1ccccc1` (configuration not stated) the same measures were 3% and -0.66.
For the molecule `O=C(COc1cccnc1)N1CC(S(=O)(=O)Nc2ccccc2)C1`, the “% Inhibition” value came to 3% and the Z score was -0.44.
As to `COc1ccc([C@H]2CC(=O)Nc3nc(N)sc32)cc1OCc1ccc(Cl)cc1`, the “% Inhibition” value is listed as -10% and the Z score is given as 1.32.
In the case of `O=C1c2ccccc2N[C@H](c2ccco2)N1c1ccc2c(c1)OCO2`, the “% Inhibition” value is on record as -34% and the Z score is 3.97.
For the molecule `Cc1cnc(C(=O)N2CCOC[C@H]2c2ccnn2C)c(C)c1`, the “% Inhibition” value stood at 0% and the Z score turned out to be 0.03.
Take `Cc1ncc(CN(C)CCC2(O)CCCC2)n1C`: the “% Inhibition” value is -12% and the Z score is recorded as 1.26.
For `CN(C)S(=O)(=O)c1ccc2c(c1)nnn2CCCC(=O)Nc1cccnc1` the same measures were 14% and -1.91.
For `Cc1cc(C)c(NS(=O)(=O)c2ccc(-c3ccn[nH]3)s2)c(C)c1` the same measures were 7% and -1.41.
For `Cc1n[nH]cc1CNC[C@H]1COc2ccccc2O1` the same measures were -6% and 0.88.
`FC(F)(F)c1cnc(O[C@H]2CCNC2)c(Cl)c1`: the “% Inhibition” value amounted to 1% and the Z score is -0.15.
For `Cn1cc(CN2CCC(C(=O)NCCN3CCOCC3)CC2)c2cc(Cl)ccc21` the same measures were 15% and -1.95.
For `CC(C)n1nccc1C=Cc1cccnn1` the same measures were -5% and 0.77.
For `CCn1cnnc1Cn1c(=O)n(C2CCCCC2)c2ncc(C(=O)OC)cc21` the same measures were -1% and 0.12.
On to `CCOCCC(=O)N[C@H](c1nc(C)cs1)C1CC1`, for which the “% Inhibition” value was -6% and the Z score is 0.65.
For `COC(=O)CC1(NC(=O)Nc2ccc(C(=O)N3CCCC[C@@H]3C)cc2)CCCCC1` the same measures were -11% and 1.87.
For `C[C@]1(C(=O)NCc2nc(-c3ccco3)n[nH]2)CC1(Cl)Cl` the same measures were -11% and 1.58.
For `COCC(=O)N[C@@H]1CC[C@H]2CCOc3ccccc3C(=O)N3CCN(C(C)C)C[C@H]3C(=O)NC[C@H]1O2` the same measures were -5% and 0.64.
With `CCC(C)NC(=O)C1Cc2ccc(OC)cc2N2CCN(c3ccccc3OC)CC12` (configuration not stated), the “% Inhibition” value is -10% and the Z score is reported as 1.33.
For `Fc1cncc(-c2nc(-c3ccncc3)no2)c1` the same measures were -12% and 1.39.
Consider `Nc1nc(CCC(=O)N2C[C@@H]3CC[C@H]2CN(Cc2ccccc2)C3)cs1`, for which the “% Inhibition” value is given as -5% and the Z score came to 0.95.
For `CCNC(=O)[C@H](C)NC(=O)CCCC(=O)c1c(C)cc(C)cc1C` the same measures were 3% and -0.33.
`CC[C@H](OC)C(=O)NS(=O)(=O)c1ccc(NC(C)=O)cc1`: the “% Inhibition” value is -1% and the Z score is given as 0.11.

These data come from ChEMBL document CHEMBL4888484, “Replenishing the malaria drug discovery pipeline: Screening and hit evaluation of the MMV Hit Generation Library 1 (HGL1) against asexual blood stage Plasmodium falciparum ,using a nano luciferase reporter read-out” (2022).
